Measured values as given in the supplement of paper PMC8285479.
Where a name gives a salt, the structure may show the parent alone. ± gives the standard deviation of the averaged measurements. The full ranking holds about 1,900 compounds; the median of “normalised cell viability (NPI; 0 = phenylarsine oxide control, 1 = DMSO control)” is about 1, and the lowest 2% start at about 0.039. This is one part of the list.

Test system: NCI-H1944
Experiment: normalised cell viability (NPI; 0 = phenylarsine oxide control, 1 = DMSO control) (fraction of DMSO control); NCI-H1944 is a non-small cell lung cancer line; higher = more viable cells (less compound toxicity)
Settings: 6 days
[1] = glucocorticoid arm: hydrocortisone 2.75 uM co-treatment, compound 1 µM
[2] = glucocorticoid arm: hydrocortisone 2.75 uM co-treatment, compound 5 µM
[3] = glucocorticoid arm: hydrocortisone 2.75 uM pre-treated 2 days and continued, compound 1 µM
[4] = glucocorticoid arm: hydrocortisone 2.75 uM pre-treated 2 days and continued, compound 5 µM
[5] = glucocorticoid arm: vehicle, compound 1 µM
[6] = glucocorticoid arm: vehicle, compound 5 µM
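Further: CTB read-out in 384-well plates, mean of triplicate wells, normalised per plate against 1 µM phenylarsine oxide and 0.1% DMSO, compounds added 24 h after seeding.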

SMILES | normalised cell viability [1] | normalised cell viability [2] | normalised cell viability [3] | normalised cell viability [4] | normalised cell viability [5] | normalised cell viability [6]
Cn1cc(-c2ccc3nnc(Sc4ccc5ncccc5c4)n3n2)cn1 | 1.02 ± 0.015 | 1.04 | 1.02 ± 0.022 | 1.02 ± 0.033 | 1.02 ± 0.015 | 1.027 ± 0.0058
Clc1ccc(Nc2nnc(Cc3ccncc3)c3ccccc23)cc1 [Vatalanib dihydrochloride (PTK787)] | 0.987 ± 0.011 | 0.959 ± 0.028 | 0.9987 ± 0.0023 | 0.958 ± 0.029 | 1.006 ± 0.0063 | 0.9923 ± 0.0023
O=C1NC(=O)/C(=C/c2cccc(C(F)(F)F)c2)S1 | 1 ± 0.019 | 1.01 ± 0.015 | 0.996 ± 0.02 | 1.02 ± 0.023 | 0.9948 ± 0.0089 | 0.9983 ± 0.0063
Cc1cc(O)c2c(c1)C(=O)c1cc(O)cc(O)c1C2=O [Emodin] | 1.017 ± 0.0058 | 0.998 ± 0.011 | 1.02 ± 0.028 | 1.01 ± 0.023 | 1.002 ± 0.0068 | 1.01
COC(=O)c1ccc2c(C(=Nc3ccc(N(C)C(=O)CN4CCN(C)CC4)cc3)c3ccccc3)c(O)[nH]c2c1 [BIBF1120 (Vargatef)] | 0.961 ± 0.019 | 1.01 ± 0.041 | 0.9907 ± 0.0059 | 1.03 ± 0.021 | 0.987 ± 0.011 | 0.9937 ± 0.0055
CN1CCN(C2CCN(C(=O)Nc3cc(Oc4ccc(NC(=O)C5(C(=O)Nc6ccc(F)cc6)CC5)c(F)c4)ccn3)CC2)CC1 [Golvatinib (E7050)] | 1.07 | 1.12 ± 0.026 | 1.07 ± 0.029 | 1.07 ± 0.026 | 1.03 | 1.033 ± 0.0058
Nc1ccc2c3c(cccc13)C(=O)NC2=O [4-Amino-1,8-naphthalimide] | 0.99 ± 0.0095 | 0.9813 ± 0.0097 | 0.9903 ± 0.0021 | 0.983 ± 0.024 | 0.996 ± 0.013 | 1.004 ± 0.01
Cc1cc2c(F)c(Oc3ncnn4cc(OC[C@@H](C)O)c(C)c34)ccc2[nH]1 | 1.02 ± 0.015 | 1.03 ± 0.026 | 1.01 | 1.02 ± 0.015 | 1.017 ± 0.0058 | 1.05 ± 0.011
O=C1C(SCCO)=C(SCCO)C(=O)c2ccccc21 | 1.02 ± 0.01 | 1.033 ± 0.0058 | 1.01 | 1.02 ± 0.01 | 1.007 ± 0.0058 | 1.01 ± 0.025
CCCn1c(=O)c2[nH]c(-c3ccc(OCC(=O)Nc4ccc(C#N)cc4)cc3)nc2n(CCC)c1=O | 0.995 ± 0.014 | 0.968 ± 0.049 | 0.993 ± 0.0061 | 1.04 ± 0.091 | 0.9957 ± 0.004 | 0.996 ± 0.013
Nc1c2c(nc3ccccc13)CCCC2O (centres undefined) [Hydroxytacrine maleate salt] | 0.988 ± 0.016 | 0.977 ± 0.0076 | 0.998 ± 0.014 | 0.988 ± 0.018 | 0.9767 ± 0.0031 | 0.977 ± 0.0056
Cc1cc(N)c2ccccc2[n+]1CCCCCCCCCC[n+]1c(C)cc(N)c2ccccc21 [Dequalinium chloride hydrate] | 0.888 ± 0.026 | 0.0383 ± 0.0062 | 0.963 ± 0.016 | 0.0385 ± 0.0016 | 0.991 ± 0.013 | 0.00579 ± 0.0022
C[C@@H]1C(=O)NC2=Nc3cccc(Cl)c3CN21 [Quazinone] | 1.002 ± 0.0072 | 1.01 ± 0.012 | 1.01 ± 0.015 | 1.01 ± 0.015 | 0.998 ± 0.0035 | 0.998 ± 0.013
Oc1cc2c(cc1O)C(c1ccccc1)CNCC2 (racemic) | 0.987 ± 0.014 | 0.982 ± 0.013 | 0.982 ± 0.023 | 0.972 ± 0.011 | 0.992 ± 0.0044 | 0.9913 ± 0.0021
Cn1ccc2cc3c(cc21)CCN3C(=O)Nc1cccnc1 | 1.02 ± 0.011 | 1.01 ± 0.018 | 1.05 ± 0.021 | 1.02 ± 0.017 | 1.03 ± 0.011 | 1.01 ± 0.01
O=C(O)CP(=O)(O)O [Phosphonoacetic acid] | 0.985 ± 0.0099 | 1.01 ± 0.011 | 0.999 ± 0.02 | 0.9877 ± 0.006 | 0.9957 ± 0.0067 | 0.987 ± 0.013
C=CC(=O)Nc1cccc(Nc2nc(Nc3ccc(OCCOC)cc3)ncc2F)c1 | 0.9277 ± 0.0042 | 0.6 ± 0.023 | 0.939 ± 0.012 | 0.689 ± 0.076 | 0.996 ± 0.004 | 0.464 ± 0.09

SMILES | normalised cell viability [1] | normalised cell viability [2] | normalised cell viability [3] | normalised cell viability [4] | normalised cell viability [5] | normalised cell viability [6]
N#Cc1c(NC(=O)c2cccc3ccccc23)sc2c1CCCC2 [JNK Inhibitor IX] | 0.249 ± 0.02 | 1.02 ± 0.023 | 0.513 ± 0.029 | 1.03 ± 0.015 | 0.0543 ± 0.0025 | 0.961 ± 0.032
NCCNC(=O)c1ccc(Cl)cc1 [Ro 16-6491 hydrochloride] | 0.998 ± 0.014 | 1.02 ± 0.021 | 1.02 ± 0.015 | 1.02 ± 0.017 | 1.001 ± 0.0081 | 0.991 ± 0.0069
CCC(=O)Nc1cccc(Oc2nc(Nc3ccc(N4CCN(C)CC4)cc3OC)ncc2Cl)c1 | 1.07 ± 0.017 | 1.11 ± 0.01 | 1.057 ± 0.0058 | 1.07 ± 0.035 | 1 ± 0.011 | 1.01 ± 0.01
CCN(CC)CCCCCCCCOC(=O)c1cc(OC)c(OC)c(OC)c1 [TMB-8 hydrochloride] | 0.979 ± 0.006 | 0.958 ± 0.0079 | 0.978 ± 0.013 | 0.974 ± 0.024 | 0.971 ± 0.014 | 0.9737 ± 0.0076
N#CC(C#N)=C(N)/C(C#N)=C/c1cc(O)c(O)c(O)c1 [Tyrphostin 51] | 0.989 ± 0.0061 | 1.013 ± 0.0058 | 1.02 ± 0.021 | 1.01 ± 0.011 | 1.01 ± 0.012 | 0.996 ± 0.013
O=C(c1ccccc1)c1ccc2n1CCC2C(=O)O (centres undefined) [Ketorolac tris salt] | 0.9873 ± 0.0065 | 0.969 ± 0.027 | 0.991 ± 0.017 | 0.99 ± 0.044 | 0.989 ± 0.002 | 0.988 ± 0.012
CCN(CC)CCCC(C)Nc1nc(C)cc(Nc2ccc3nc(C)cc(N)c3c2)n1 (centres undefined) | 0.845 ± 0.0082 | 0.444 ± 0.019 | 0.888 ± 0.01 | 0.688 ± 0.036 | 1 ± 0.013 | 0.119 ± 0.0062
CNC(=O)[C@H]1O[C@@H](n2cnc3c(NCc4cccc(I)c4)nc(Cl)nc32)[C@H](O)[C@@H]1O [Chloro-IB-MECA] | 0.9927 ± 0.0084 | 0.918 ± 0.014 | 0.9917 ± 0.0076 | 1 ± 0.016 | 0.9923 ± 0.0072 | 0.9763 ± 0.006
O=C(C[S+]([O-])Cc1ccco1)NC/C=C\COc1cc(CN2CCCCC2)ccn1 (centres undefined) [Lafutidine] | 1.02 ± 0.021 | 1.02 | 1.04 ± 0.015 | 1.03 ± 0.033 | 1.01 ± 0.01 | 1.01
C#CCC(Cc1cnc2nc(N)nc(N)c2n1)c1ccc(C(=O)N[C@@H](CCC(=O)O)C(=O)O)cc1 (some centres undefined) [pralatrexate] | 0.415 ± 0.03 | 0.396 ± 0.032 | 0.628 ± 0.032 | 0.574 ± 0.014 | 0.228 ± 0.0091 | 0.234 ± 0.025
CN(C)CC(c1ccc(O)cc1)C1(O)CCCCC1 (centres undefined) [Desvenlafaxine Succinate] | 1.02 ± 0.015 | 1.02 ± 0.035 | 1.01 ± 0.011 | 1.01 ± 0.014 | 1.001 ± 0.0078 | 1.006 ± 0.0075
CN(C)CC(c1ccc(O)cc1)C1(O)CCCCC1 (centres undefined) [Desvenlafaxine] | 0.989 ± 0.028 | 0.97 ± 0.0036 | 0.991 ± 0.011 | 0.978 ± 0.013 | 0.983 ± 0.016 | 0.9943 ± 0.0038
O=C(NOCC(O)CO)c1cc(Br)c(F)c(F)c1Nc1ccc(I)cc1F (centres undefined) | 0.62 ± 0.022 | 0.53 ± 0.028 | 0.715 ± 0.0062 | 0.669 ± 0.029 | 0.64 ± 0.027 | 0.418 ± 0.011
COc1ccc(S(=O)(=O)N(CCO)c2ccccc2CN(C)C/C=C/c2ccc(Cl)cc2)cc1 [KN-93 Phosphate] | 1.013 ± 0.0058 | 0.853 ± 0.029 | 1.03 ± 0.011 | 0.888 ± 0.048 | 1.02 ± 0.01 | 0.964 ± 0.01
COc1cccc(C(=O)NCCN2CCN(c3ccc(Cl)cc3)CC2)c1 | 1.01 ± 0.01 | 0.995 ± 0.023 | 1.02 ± 0.055 | 1.005 ± 0.0071 | 1.013 ± 0.0058 | 1.013 ± 0.0058
O=C1NC(=O)C(=Cc2ccc(-c3ccc(F)cc3)o2)S1 (stereo in doubt) | 1 ± 0.018 | 1 ± 0.014 | 0.996 ± 0.013 | 1.01 | 0.991 ± 0.0027 | 0.9913 ± 0.0083
O=C1NC(=O)C(c2ccccc2)(c2ccccc2)N1 [5,5-Diphenylhydantoin] | 1 ± 0.014 | 0.975 ± 0.027 | 0.988 ± 0.007 | 0.982 ± 0.013 | 0.99 ± 0.0078 | 0.9847 ± 0.0047
